Source: the supplement of paper PMC11417369
The list shows a part of the results.

The sequences below were run on PfAP2-HC AP2 domain (GST-tagged) (assay: gcPBM binding intensity (ln(normalized median fluorescence intensity)); higher = stronger DNA binding).
How it was run: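 Alexa488 anti-GST antibody, scanned at 488 nm, detected GST-tagged P. falciparum DNA-binding domains that had been expressed in E. coli and incubated for 1 h on an Agilent 4 × 180k array. The array carried primer-extended double-stranded 36-bp intergenic genomic probes and negative controls. Binding intensity is the highest Masliner-normalised natural-log median intensity across replicate spots of either orientation of each probe.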

Sequence | gcPBM binding intensity (ln)
TGTTTTTAAAAATATACACACACAGATATTATATAT [CACACA_site8162] | 10.2
TTTTATATTTATTTTTGTACATAAATGATCTCAAAT [XGTACX_site7768] | 9.47
AAAAAAAAAAAATTATGTACATATTATATATAATGG [XGTACX_site2885] | 9.56
TAAAATATGTCATGGGTGCTTCTTTTTATACCTATG [GTGCAC_site9888] | 10
AAATATTATAATAATTGTACTATATATACAGTTATT [XGTACX_site1963] | 9.62
ATATATATATATTTATGTACGCATTTATAGACGTAG [XGTACX_site6031] | 9.64
TATGATAACCATAATTGTACAGAATGAAACGTAAAT [XGTACX_site1653] | 9.84
AGAAAAAAAAAAAAAAATAAAAAAATAAATAAATAA [GTGCAC_negctrl_site161] | 9.34
ACTTAAATAATACATACACACATGTACTTACAGAAA [CACACA_site8458] | 9.8
CACAAATATATACATACACACATATATACACATATA [CACACA_site8024] | 9.94
AAAACGCAGTTTAATATACACACCAAAAAAAAAAAA [CACACA_site3036] | 9.65
TTTGAGATGTGGTGTACACAAAATTAGGTACACATC [CACACA_site5773] | 9.74
TATTAATTTCGGGAAGTGCATTATGTTTATAGAATA | 9.34
ATTATATAAGTACACAAACAAGTATGAGATTCAAAA [GTGCAC_negctrl_site119] | 9.79
TGTTTTAAACTAATTTGTACATAGTTATTTATATTT [XGTACX_site7196] | 9.68
CCATATATTTGGTATAGTACTTTTTATTTTATTTCA [XGTACX_site8933] | 9.69
AATTGTTTTTTTTTCTTATTTTATGTTATACACACA [TGCATGCA_negctrl_site380] | 9.9
AAAAAAAAAAAAAACACATGCAGAAGAAAAAAAATA [TGCATGCA_site545] | 9.72
AAATGAACATATATGTGTACTTATATTTTTCTAAAT [XGTACX_site3388] | 9.75
ATATATTTTTCTTTACGTACGAAGCAAAATAACATT [XGTACX_site8145] | 9.52
AAAAAAAAAAAAAAAGTGCATATATAAATATTGTAT [GTGCAC_site9459] | 9.59
TCATTAAATGTTTAGGTGCATACTTTAATTTTTAAT [GTGCAC_site9906] | 9.59
TAACTTTGGAGGAGCTGTACGATTATTTTGATCCTT [XGTACX_site2514] | 9.62

Sequence | gcPBM binding intensity (ln)
AAAAAATTTCAAATAACACACACTAATATAAATATG [CACACA_site6783] | 10.4
TTTAAAAAATAATATTGTACTATTCTCCCAATTTCT [XGTACX_site7079] | 9.46
TTTTTATATAATTTAACACACATTTCATATAAAAAA [CACACA_site3103] | 9.27
ATGTGAAAATAAGACACACTCAAAAGGTTTATATTA [CACACA_site4595] | 9.78
ATATACTGTATGAAAGCACACATACTTATTACTAAC [CACACA_site9384] | 9.79
TGGGAAAAAATATATGCACACCCCCCAAAAAAAAAA [CACACA_site8696] | 10.6
AAAAAATGTTATAAAAGTACATAATTTATCTACCAT [XGTACX_site3035] | 9.6
AATTCTTTATTATATGCACACGTACATATAATATAT [CACACA_site8621] | 9.84
AAAAAAAAAAAAAAGTGTACCTTCAAAATAATATTG [XGTACX_site2844] | 9.52
ATAAATATAAAACACACACACATATTATATATATAT [CACACA_site3064] | 10.3
CTATATATAACCCATGTGCACTTTTTATGTACAATA | 9.75
TCTTTCCTTATTAAAACACACAAATACATTATTTAA [CACACA_site2147] | 9.45
CCTTTTTCTACTTTCTCACACATATTAAGAATTATA [CACACA_site5621] | 9.55
AAAAAATGAAAAAACTGTACGCAATTTTGTTTTTAT [XGTACX_site2299] | 9.64
AAGTTTTTTTTTATCACACACAAAAAAAAAAATATA [CACACA_site1362] | 9.9
GTTCATAAAAATTTTTGTACCCATAAAATATTCCTC [XGTACX_site8611] | 9.54
GTAGGTGTTTTTGGTTGTACATATAAATATATATAC [XGTACX_site3380] | 9.84
TTTTTTTTTTTTAATTGTACTTATTAAAAAAAGCAA [XGTACX_site8713] | 8.86
TTTCTTCTTCAATGTTGTACTTTTCTCTTTTCTTAA [XGTACX_site1017] | 9.66
GATATATATGTTCACACACACATGGAAATATATATA [CACACA_site4371] | 10.1
TTAAGATCCTAAAAAACACACAATTGCGAATAATAA [CACACA_site6005] | 9.79
ATATCATAAAAAATGTGTACATATATGAACATATAA [XGTACX_site2239] | 9.6
GGAAATTAACAGAACACAATGTAACAATTTCTAACA [CACACA_negctrl_site1250] | 9.69

Sequence | gcPBM binding intensity (ln)
AGATAAATATATTGTAGTACAGGAGCATAAATATAT [XGTACX_site8267] | 9.84
TATTTTCATTATACTACTTCGAAGATACCCTTTTTT [CACACA_negctrl_site256] | 9.6
TATAAACATTAAAGGTGTACAATTTAATTTCAATTT [XGTACX_site2944] | 9.56
GTTCTTCCTTGTAAATGTACAAATACAAAATGTTCC [XGTACX_site6738] | 9.58
CATTATTCTTTTAATATACACACTTTGTCTTTTCGC [CACACA_site2762] | 9.74
ATATTATTATATATAGTGCATATTATTATTTTTATT | 9.7
TCTCATAGTAAACACACACACACACCCACATATATA [CACACA_site5034] | 10.6
TATGCACTTTAGGGCAGTACGTCAACATTATCTTTA [XGTACX_site3382] | 9.52
CCTCATACGAAATATAAACACACATACAATAAATAA [CACACA_site8620] | 10
ATAAATTTTTTTTTTTTTTTTTTTTTTTTTTTTTTT [CACACA_negctrl_site508] | 9.23
ATTTTTTTCATAGACACACACAATATATCTGTTTCC [CACACA_site3023] | 10.5
TGTTAAAATTATTTGGTGCACTTGTTTTACCTTATT | 9.74
TATATTTATTATAACACACACATATAAATATTATAG [CACACA_site6726] | 9.91
TTTTTTTTTTTTCAATCACACATGTTTTAATTATTT [CACACA_site5532] | 9.66
TGTACGTTTTATAACACACACACAAAAAAAAAAAAA [CACACA_site3875] | 10.5
TGTAATAATATTTATGTGCACATATATTAAACTATA [GTGCAC_site9584] | 9.63
TCATTTCACAGACACACACACACAAGATATTTCCTT [CACACA_site7774] | 11.1
AAGATAAAATGATGCACACAAAAGGGTGTAATATAT [CACACA_site1706] | 10.2
GAAGTTTTCTTAAAGATGCACTTTTTAAAAATAAAA [GTGCAC_site9941] | 8.97
TCTTCTTTTTTTTTTTTGTATTATTATAAATATTAT [CACACA_negctrl_site1668] | 9.76
TTTTTTTTTTTTAATGCACACAATATATAATATGTA [CACACA_site3694] | 9.7
AATATACAAATAAAGGTGCGAGATATTTTTACTTTT | 9.82
ACAATATGCAAAAAGTGTACACATTCATTTATATAA [XGTACX_site1061] | 10.1

Sequence | gcPBM binding intensity (ln)
ATAAAAAAAGATGAACGTACATATATTTTAAAAATC [XGTACX_site5950] | 9.76
TATTAAATATATATTACATGCAAAAAAAAAAAACAA [TGCATGCA_site705] | 9.76
GTAAATATTTGTTGGGTGCTATCAATTATTTCAAAG | 9.57
TTTTTTTTGAAGAATACATGCATATTTTCTATATTC [TGCATGCA_site43] | 9.59
ATATAAAATATGTATGAGGAATAAAATTAAAAAAAA [XGTACX_negctrl_site173] | 9.83
CGGCACATTCTATATACACACATATAAATATATACA [CACACA_site566] | 9.71
TACAATTCGTAATACACACACATATAAATAAATATT [CACACA_site7720] | 10
TGCGGAAATAAGTGCACACATAGATATATGTATTTT [CACACA_site3689] | 9.82
ATATTATATATGTATAGTACATATTATAAGAAAAAT [XGTACX_site3457] | 9.86
ATCTATATCTATAATACACACATCATAAAATATGTA [CACACA_site7230] | 9.73
ATATATATTAATAATGCATGTGATATAAATTAATAT [TGCATGCA_site930] | 9.75
ATTTTATATATGTGTTGTACGGTGAACATTTTGATA [XGTACX_site6538] | 9.68
ATATGTATAAATATAAATATATATATATATATATAT [CACACA_negctrl_site705] | 9.78
ACGTTAATATCTACAAGTACCCACATTAACAGGAAA [XGTACX_site2616] | 9.67
AAAAAAAACAGACACACACACATTCAATATAAAACA [CACACA_site41] | 11.3
ATATCTTATATTATCACACACACACCCACAAAACAG [CACACA_site1464] | 11.5
ATGATATGGATAAATACACACAATATAATAATGGGT [CACACA_site4905] | 10.1
TATATAAACATCGGTAGTACACACATTCATGTATTT [XGTACX_site6443] | 9.88
GGATCATTTTTAAAGGAACACACAAAAAAAATTATA [CACACA_site8381] | 9.71
ATAAATATGGCAGTACGTACGTATATTCATATTCAT [XGTACX_site8042] | 9.75
ATTAAAAAAAAAAAAAAAAAACAAAAAAAAAAAAAA [CACACA_negctrl_site1187] | 8.67
